Drawing on the supplement of paper PMC4723716, this text covers viability index for 71 molecules.

Each structure is given as a SMILES string. ± gives the uncertainty stated by the source. Whole data set: some 9,900 compounds, median “viability index relative to DMSO control” near 1, cut for the lowest 2% near 0.85. The list shows a part of the results.

The test system of this assay is Plasmodium falciparum NF54 stage V gametocytes. Description: viability index relative to DMSO control (fraction); higher = less gametocyte killing. The following applies: 2.5 µM, library set: Broad Institute DOS, incubation time: 72 h. In short, it runs like this: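 In 1,536-well plates, 10 µl of serum-free medium holding P. falciparum NF54 stage V gametocytes (0.75% gametocytemia, 1.25% hematocrit) received compound at 2.5 µM for 72 hr at 37°C in low oxygen. After one to two hours with 3 µl of 2.5 µM MitoTracker Red CMXRos containing 0.13% saponin, red particles of 20–70 µm2 were counted in a single field per well. Viability index is reported as the particle count over the plate mean of wells treated with solvent only.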
In turn, `CN(C)C(=O)C[C@H]1C[C@@H]2c3cc(NC(=O)c4cccnc4)ccc3O[C@@H]2[C@H](CO)O1` gave a viability index of 1.063 ± 0.009. Next, `CN1C(=O)c2cc(NC(=O)c3cscn3)ccc2OC[C@H]2O[C@H](CC(=O)NCc3ccc(Cl)c(Cl)c3)CC[C@H]21`: 1.08 ± 0.032; `CO[C@@H](CN(C)Cc1cc(F)ccc1F)[C@H](C)CN([C@@H](C)CO)S(=O)(=O)c1ccc(C)cc1`: 0.936 ± 0.097. The value for `C[C@@H]1CN([C@@H](C)CO)C(=O)CCCn2cc(nn2)CO[C@@H]1CN(C)C(=O)CCC(F)(F)F` was 0.944 ± 0.15. Next, `COc1ccc2c3c([nH]c2c1)[C@@H](CO)N(C[C@]31CCN(Cc2cccc(F)c2)CC1)C(=O)C1CCOCC1`: 1.02 ± 0.092; `CO[C@@H](CN(C)C(=O)C1CCOCC1)[C@@H](C)CN(C(=O)Nc1ccc(C(F)(F)F)cc1)[C@@H](C)CO`: 1.08 ± 0.11. `O=C(Nc1ccccc1)N1CC(=O)N2[C@H](CO)[C@@H](c3ccc(C#CC4CCCCC4)cc3)[C@H]2C1` returned a viability index of 1 ± 0.13. Next, `COc1ccc(NC(=O)N2C[C@H]3[C@@H](c4ccccc42)[C@@H](CO)N3Cc2ccccn2)cc1`: 1.05 ± 0.013; `NCC[C@@H]1CC[C@H](NS(=O)(=O)c2ccc(Cl)cc2)[C@H](CO)O1`: 1.08 ± 0.093. Turning to `CN(C)C(=O)c1cccc(-c2ccc3c(c2)[C@H]2[C@H](CCN2C(=O)Cc2ccccc2)[C@@H](CO)N3)c1`, the viability index amounted to 0.899 ± 0.042. In turn, `C[C@H]1CC(=O)NCC/C=C\C[C@@H](c2ccc3c(c2)OCO3)NC1=O` came in with a viability index of 0.982 ± 0.034. Consider `Cc1ccc(S(=O)(=O)N(C)C[C@H]2OCCCC[C@H](C)Oc3ccc(NC(=O)c4ccncc4)cc3C(=O)N([C@@H](C)CO)C[C@@H]2C)cc1`, for which the viability index came to 1.04 ± 0.031.

The molecule `CC(C)NC(=O)N1[C@H](CO)[C@H]2c3ccccc3N(C)C[C@H]21` registered a viability index of 1.1 ± 0.067. With `Cc1ccccc1-c1ccc([C@@H]2[C@H]3CN(C(=O)c4ccncc4)CC(=O)N3[C@H]2CO)cc1`, the viability index amounted to 0.971 ± 0.019. Turning to `COc1ccc(S(=O)(=O)Nc2cccc3c2O[C@H](CN(C)CC2CCCCC2)[C@H](C)CN([C@@H](C)CO)C3=O)cc1`, the viability index stood at 1.04 ± 0.034.

Take `C/C=C/c1ccc([C@@H]2[C@@H](CO)N(Cc3cccc(F)c3)C23CN(C(C)=O)C3)cc1`: the viability index was 1.07 ± 0.04. On to `COCC(=O)Nc1ccc2c(c1)OC[C@@H](C)N(C)C[C@@H](C)[C@@H](OC)CN(C)C2=O`, for which the viability index worked out at 1 ± 0.046. As for `COc1ccc(S(=O)(=O)N(C)C[C@H]2Oc3c(cccc3N(C)C)C(=O)N([C@@H](C)CO)C[C@@H]2C)cc1`, the viability index came out at 1.02 ± 0.016. Next, `C[C@H]1CNC(=O)[C@H](Cc2ccc(C(F)(F)F)cc2)CCn2nncc2COC1`: 1.06 ± 0.07; `COCC(=O)N1[C@H](C#N)[C@@H](c2ccccc2-c2cccc(C)c2)[C@@H]1CO`: 1 ± 0.11; `COc1ccc(S(=O)(=O)N(C)C[C@@H]2Oc3ccc(N(C)C)cc3CC(=O)N([C@H](C)CO)C[C@H]2C)cc1`: 1.05 ± 0.019. With `CO[C@H]1CN(C)C(=O)c2cc(NC(=O)C3CCCCC3)ccc2OC[C@@H](C)N(C(=O)c2ccccc2)C[C@H]1C`, the viability index came out at 0.9824 ± 0.0016. Next, `CN1[C@@H]2c3ccc(-c4ccccc4F)c(=O)n3C[C@@H]2[C@@H](CO)[C@@H]1C(=O)Nc1nccs1`: 1.03 ± 0.054; `CCCN1C[C@@]2(C1)CN([C@H](CO)c1c2c2ccc(OC)cc2n1C)C(=O)CN1CCOCC1`: 1.01 ± 0.015; `O=C(c1ccc2c(c1)OCO2)N1C[C@@H]2[C@H](c3ccccc31)[C@@H](CO)N2C(=O)CC1CC1`: 0.999 ± 0.03.

`C[C@H](NC(=O)C[C@H]1CC[C@@H]2[C@H](COC[C@H](O)CN2Cc2ccc(C(F)(F)F)cc2)O1)c1ccccc1` had a viability index of 1.05 ± 0.022.

In the case of `CCC(=O)N1C[C@@H]2[C@H](c3ccccc31)[C@@H](CO)N2C(=O)CC1CC1`, the viability index is 1.04 ± 0.035. Next, `COc1cccc(-c2ccc([C@H]3[C@H]4CNC[C@@H]3N4C(=O)NC3CCCCC3)cc2)c1`: 1.09 ± 0.034; `C[C@@H]1CN([C@@H](C)CO)C(=O)CCCn2nncc2CO[C@H]1CN(C)C(=O)Nc1ccc(-c2cccs2)cc1`: 1.08 ± 0.052. The value for `O=C(Nc1ccccc1)N1CC(=O)N2[C@@H](CO)[C@@H](c3ccc(C#CC4CCCCC4)cc3)[C@@H]2C1` was 0.9305 ± 0.0073. Next, `CO[C@@H]1CN(C)C(=O)c2ccc(NC(=O)Nc3cc(F)ccc3F)cc2OC[C@H](C)N(C(=O)c2ccccn2)C[C@H]1C`: 1.08 ± 0.026; `CCCC#Cc1ccc([C@@H]2[C@@H](CO)N3C(=O)CN(C(=O)c4cccnc4)C[C@@H]23)cc1`: 1.04 ± 0.035; `O=C(Nc1ccc(F)cc1)N1CC(=O)N2[C@H](C1)[C@H](c1ccc(C#Cc3cccnc3)cc1)[C@@H]2CO`: 1.08 ± 0.07. Molecule `CN(C)C(=O)C[C@H]1CC[C@H]2[C@@H](COC[C@@H](O)CN2C(=O)C2CCOCC2)O1` returned a viability index of 1.09 ± 0.039.

`O=C(Nc1ccccc1Cl)N1C[C@H]2[C@@H](c3ccccc31)[C@@H](CO)N2C(=O)c1cccnc1` registered a viability index of 1.07 ± 0.036. In the case of `CC(C)NC(=O)N1Cc2cc(C(=O)NC3Cc4ccccc4C3)nc(-c3cccc(-c4cccnc4)c3)c2[C@@H]1CCO`, the viability index is 0.97 ± 0.052. Next, `COc1ccc2c3c([C@H](CO)N(CC4CC4)C[C@]33CN(C3)C(=O)c3ccc4OCOc4c3)n(C)c2c1`: 0.976 ± 0.068; `CN1C(=O)c2cc(NC(=O)c3cccc(C(F)(F)F)c3)ccc2OC[C@@H]2O[C@@H](CC(=O)NCCN3CCCC3)CC[C@H]21`: 1.01 ± 0.086.

In the case of `CCCNC(=O)N(C)C[C@@H]1Oc2cc(C#C[C@H](C)O)ccc2S(=O)(=O)N([C@@H](C)CO)C[C@@H]1C`, the viability index is 1.04 ± 0.025. For the molecule `O=C(C[C@H]1C[C@@H]2c3cc(NC(=O)C4CCOCC4)ccc3O[C@@H]2[C@H](CO)O1)NCc1cccnc1`, the viability index was found to be 1.03 ± 0.025. `C[C@@H]1CN([C@H](C)CO)C(=O)c2cc(NC(=O)C3CCCCC3)ccc2O[C@H]1CN(C)C(=O)Nc1ccc(C(F)(F)F)cc1` displayed a viability index of 0.978 ± 0.045.

`C/C=C/c1ccc([C@H]2[C@H]3CNC[C@@H]2N3C(=O)NC2CCCCC2)cc1` displayed a viability index of 1.11 ± 0.079. On to `O=C(C[C@@H]1C[C@@H]2c3cc(NC(=O)NC4CCCC4)ccc3O[C@@H]2[C@@H](CO)O1)NCc1ccccc1F`, for which the viability index is 1.096 ± 0.0033. In turn, `C[C@H]1COCn2nncc2CC[C@@H](Cc2ccc(-c3ccccc3)cc2)C(=O)N1` came in with a viability index of 1.05 ± 0.079.

In turn, `Cc1ccc(S(=O)(=O)N2CC[C@H]3[C@@H](CO)N(C)c4ccc(-c5ccccc5F)cc4[C@H]32)cc1` yielded a viability index of 1 ± 0.016. Molecule `CCS(=O)(=O)N1CCCCN2[C@H](CO)[C@@H](c3ccc(-c4ccc(C(=O)N(C)C)cc4)cc3)[C@@H]2C1` had a viability index of 1.018 ± 0.0058. Next, `O=C(Nc1ccc(F)cc1)N1[C@H](CO)[C@H]2c3ccccc3NC[C@H]21`: 1.031 ± 0.0082. The value for `COc1ccccc1-c1ccc([C@@H]2[C@H]3CNC[C@@H]2N3Cc2ccc(F)cc2)cc1` was 1.109 ± 0.0035; that for `Cc1noc(C)c1NC(=O)Nc1cccc2c1O[C@H](CN(C)Cc1ccc(C(=O)Nc3ccccc3N)cc1)[C@H](C)CN([C@H](C)CO)C2=O` was 0.983 ± 0.072. With `O=C(NC1CCCCC1)N1CC2(C1)[C@H](c1ccccc1)[C@@H](CO)N2S(=O)(=O)Cc1ccccc1`, the viability index stood at 1.05 ± 0.09. The value for `CCS(=O)(=O)Nc1ccc2c(c1)C(=O)N(C)[C@@H]1CC[C@H](CC(=O)N[C@H]3CCN(Cc4ccccc4)C3)O[C@@H]1CO2` was 1.13 ± 0.099; that for `CCS(=O)(=O)N1Cc2cc(C(=O)NCC3CC3)nc(-c3cccc(-c4cccnc4)c3)c2[C@H]1CCO` was 0.952 ± 0.017. In turn, `O=C(Nc1ccc(F)cc1)N1C[C@H]2[C@@H](c3ccccc31)[C@@H](CO)N2Cc1ccccc1Cl` showed a viability index of 1.02 ± 0.1. The value for `C[C@H]1CN([C@@H](C)CO)C(=O)CCCn2nncc2CO[C@@H]1CN(C)Cc1ccc2cccnc2c1` was 0.879 ± 0.04; that for `CNC[C@H]1Oc2cc(C#Cc3ccccc3OC)ccc2S(=O)(=O)N([C@@H](C)CO)C[C@@H]1C` was 0.867 ± 0.022.

Molecule `CCC(=O)N1CC(=O)N2[C@H](CO)[C@@H](c3ccc(-c4ccc(C#N)cc4)cc3)[C@H]2C1` registered a viability index of 0.98417 ± 3.9e-05.

In turn, `CO[C@H]1CN(C)C(=O)c2ccc(NS(=O)(=O)c3c(C)noc3C)cc2OC[C@@H](C)NC[C@H]1C` showed a viability index of 1.06 ± 0.03. On to `COc1ccc2c3c([nH]c2c1)[C@H](CO)N(C[C@]31CCN(CC1)S(=O)(=O)c1cccs1)C(=O)c1ccc(F)cc1`, for which the viability index came out at 1.12 ± 0.048. The value for `N#C[C@@H]1[C@@H](c2ccccc2)[C@H](CO)N1C(=O)c1ccccc1F` was 1.1 ± 0.018.

Molecule `CO[C@@H](C(=O)N(C)C[C@@H]1OCc2ccccc2-c2ccccc2C(=O)N([C@@H](C)CO)C[C@@H]1C)c1ccccc1` yielded a viability index of 0.958 ± 0.12. `Cc1noc(C)c1S(=O)(=O)N(C)C[C@@H]1OCc2ccccc2-c2ccccc2C(=O)N([C@@H](C)CO)C[C@H]1C` displayed a viability index of 1.09 ± 0.011. On to `COc1ccc2c3c([nH]c2c1)[C@@H](CO)N(C[C@]31CCN(CC1)C(=O)NC(C)C)C(=O)c1ccc(F)cc1`, for which the viability index is 1.042 ± 0.005. The value for `C[C@@H]1CN([C@@H](C)CO)C(=O)c2ccccc2-c2ccccc2CO[C@@H]1CN(C)C(=O)[C@@H](Cc1ccccc1)N(C)C` was 1.05 ± 0.081; that for `C[C@@H]1CN([C@@H](C)CO)C(=O)c2c(c3ccccc3n2C)-c2ccccc2CO[C@@H]1CN(C)C(=O)NC1CCCCC1` was 1.03 ± 0.033; that for `COc1ccc(NC(=O)N(C)C[C@H]2OCc3cnnn3CCCC(=O)N([C@H](C)CO)C[C@@H]2C)c(OC)c1` was 1.08 ± 0.12. Molecule `CN1C(=O)c2cc(NC(=O)Nc3ccc(Cl)cc3)ccc2OC[C@@H]2O[C@H](CC(=O)NCCN3CCCCC3)CC[C@H]21` displayed a viability index of 0.955 ± 0.11.

`O=C1CNC[C@@H]2[C@H](c3ccc(C4=CCCC4)cc3)[C@@H](CO)N12` yielded a viability index of 1.082 ± 0.0029. The value for `CC(=O)N1[C@H](CN(CC2CCC2)C(=O)CN(C)C)[C@@H](c2ccccc2)[C@@H]1CO` was 1.0227 ± 0.00093; that for `C[C@@H]1CN([C@H](C)CO)C(=O)c2cc(NS(=O)(=O)c3cn(C)cn3)ccc2O[C@@H](C)CCCCO[C@@H]1CN(C)Cc1ccc2c(c1)OCO2` was 1.15 ± 0.07. `CCNC(=O)C[C@@H]1CC[C@H]2[C@@H](COC[C@@H](O)CN2C(=O)C2CCCC2)O1` displayed a viability index of 1.024 ± 0.0049. `COc1ccc(CNC(=O)C[C@H]2C=C[C@H](NC(=O)c3cccc(F)c3)[C@H](CO)O2)cc1` had a viability index of 1.03 ± 0.047.
